Measured values as given in PubChem BioAssay AID1240 (Sanford-Burnham Center for Chemical Genomics, 2008).
In all, about 50,000 compounds went through this assay and about 800 (1.6%) showed an effect of 50% or more. The list shows a part of the results.

Biological target: Bcl-2-like protein 10 (Homo sapiens) (UniProt Q9HD36)
Experiment: Phenotype converters, Bcl-B/TR3 peptide binding displacement, primary biochemical FP (AID 1240);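 further: 0% = Bcl-B with tracer peptide and DMSO and 100% = tracer peptide lacking Bcl-B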
Conditions: GST-Bcl-B / FITC-TR3 peptide fluorescence polarization; stronger effect = higher value; compound at 3.75 mg/L

Sequence of UniProt Q9HD36 (Q9HD36 whole entry, looked up): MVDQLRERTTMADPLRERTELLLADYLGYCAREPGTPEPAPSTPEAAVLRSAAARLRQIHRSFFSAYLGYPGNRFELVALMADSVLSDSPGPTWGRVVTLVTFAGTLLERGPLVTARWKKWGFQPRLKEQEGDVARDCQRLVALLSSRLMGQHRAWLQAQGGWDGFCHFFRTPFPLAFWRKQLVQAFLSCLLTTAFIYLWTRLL

Structure (SMILES)	displacement
O=C(Nc1ccccc1Cl)c1ccc(-n2cnnn2)cc1	-5.7%
O=C(N/N=C/c1c(O)ccc2ccccc12)c1cc(-c2cccs2)[nH]n1	-27.4%
Cc1cc(OCC(=O)Nc2cccc(I)c2)ccc1Br	-2%
O=C1c2ccccc2C(=O)C1(Nc1ccccc1)c1ccc([N+](=O)[O-])cc1	9.8%
O=C1/C(=C/c2cccs2)SC(=S)N1c1ccc(F)cc1	12.8%
O=C(O)CCCN1C(=O)/C(=C/C=C/c2ccccc2)SC1=S	0.2%
CCOc1ccccc1NC(=O)c1c(-c2c(Cl)cccc2Cl)noc1C	2.8%
CCC(=O)Nc1sc2c(c1C(=O)Nc1cccc3ccccc13)CCC(C)C2 (configuration not stated)	7.8%
COC(=O)C1=C(C)N(C)C(C)=C(C(=O)OC)C1c1cc([N+](=O)[O-])ccc1Cl	-5.8%
Fc1ccc(NC(=S)N2CCN(c3ncccn3)CC2)cc1	-5.8%
O=c1c(-c2ccccc2)c(C(F)(F)F)oc2cc(O)ccc12	-3.9%
CCOc1ccc(NC(=O)CSc2nnc(-c3ccc(OC)cc3)o2)cc1	9.8%
Cc1cc(C)c2nc3s/c(=C\c4ccc(Br)cc4)c(=O)n3c2c1	0%
CC1CCC(=C(C#N)c2nc(-c3cc4ccccc4oc3=O)cs2)CC1 (configuration not stated)	42%
COC(=O)C1=CN(Cc2ccc(C)cc2)C=C(C(=O)OC)C1c1cc(OC)c(OC)c(OC)c1	4.7%
COc1ccc(CN2CCN(C(=O)c3ccc(-c4ccccc4)cc3)CC2)c(OC)c1OC	-3.2%
CCOc1ccc(NC(=S)NC(=O)/C=C/c2ccc(C)cc2)c([N+](=O)[O-])c1	6.3%
CCc1ccccc1NC(=O)CN(c1ccc(Br)cc1)S(C)(=O)=O	-7%
COc1ccc(-c2nc3ccccc3c(=O)o2)c(OC)c1	2.2%
COc1cc(C(=S)N2CCOCC2)cc(OC)c1OC(=O)c1ccc(Br)cc1	12.3%
CCCCNc1c(C)c(O)cc2cc(OC)c(OC)cc12	5.9%
O=C(Nc1nnc(CSCc2ccccc2)s1)c1cccc2ccccc12	10.8%

Structure (SMILES)	displacement
CCOC(=O)C1=C(C)NC(=S)NC1c1cc(C(C)C)c(OC)cc1C (configuration not stated)	-1.3%
O=C(/C=C/c1cc2c(cc1Br)OCCO2)c1c(-c2ccccc2)c2cc(Cl)ccc2[nH]c1=O	11.6%
O=[N+]([O-])c1cccc(NS(=O)(=O)/C=C/c2ccccc2)c1	2.1%
CCCC(=O)Nc1ccc(N2CCOCC2)cc1	8.9%
O=c1/c(=C\c2ccccc2C(F)(F)F)sc2nc3ccccc3n12	-11.4%
COc1ccc(C(=O)Nc2ccc(N3CCOCC3)cc2)cc1OC	0.5%
C=CCN(CC=C)CN1C(=O)C(=O)c2cc(Br)ccc21	6.3%
CCOC(=O)c1c(NC(=O)c2cccc(F)c2)sc(C(=O)Nc2ccccc2OCC)c1C	5.3%
COc1cccc2c1NC(c1cccc3ccccc13)C1CC=CC21 (configuration not stated)	-1.9%
O=C(c1ccccc1)N1CCN(C2CC(=O)N(CCc3ccccc3)C2=O)CC1 (configuration not stated)	3.9%
Cc1ccc([N+](=O)[O-])cc1N1C(=O)C2C3C=CC(CC3)C2C1=O (configuration not stated)	5.4%
O=C(/C=C/c1ccccc1)N1CCN(c2ccccn2)CC1	11.9%
O=C1OC(c2ccccc2)=N/C1=C1\C=C(c2ccccc2)Oc2ccccc21	-4.2%
COc1ccc(C2CC(=O)C3=C(C2)Nc2ccccc2NC3c2cc(F)ccc2F)cc1OC (configuration not stated)	0%
CCCC(C)NC(=O)c1c(Cl)cccc1Cl (configuration not stated)	4.5%
CN1C(=O)/C(=C2/SC(=S)N(CCC(=O)O)C2=O)c2cc(Br)ccc21	30.8%
CCc1ccccc1N(CC(=O)Nc1cccc(C(F)(F)F)c1)S(C)(=O)=O	1.1%
CCCN(CCC)C(=O)c1ccccc1NC(=O)c1cccs1	5.6%
CC(=O)NN1C(=O)/C(=C/c2cccc(O)c2)SC1=S	1.4%
C=CCN1C(=O)/C(=C/c2ccc(N(C)C)cc2)SC1=S	0%
CC(=O)c1cccc(NS(=O)(=O)c2cc(Cl)ccc2Cl)c1	-2%
Nc1c(C(=O)c2ccc(Cl)cc2)sc2nc(-c3ccccc3)ccc12	-3.6%

Structure (SMILES)	displacement
CC(C)(C)C1CCC2(CC1)NC(=S)N(c1ccccc1)N2 (configuration not stated)	8%
O=C(Nc1nnc(COc2ccc(Cl)cc2Cl)s1)c1ccco1	15%
CC1=C(C(=O)OCCOc2ccccc2)C(c2cc3c(cc2Br)OCO3)NC(=O)N1 (configuration not stated)	1.6%
NS(=O)(=O)c1ccc(CNC2CC(=O)N(c3ccc(Cl)c(Cl)c3)C2=O)cc1 (configuration not stated)	5.3%
COc1ccc(NC(=O)COc2ccc(Br)cc2C(C)(C)C)c([N+](=O)[O-])c1	0%
CCSCCOC(=O)C1=C(C)NC2=C(C(=O)CC(C)(C)C2)C1c1cccc2ccccc12 (configuration not stated)	-2.6%
COC(=O)c1c(NC(=O)C2C(C=C(Cl)Cl)C2(C)C)sc2c1CCCC2 (configuration not stated)	4.5%
COC(OC)C12c3ccccc3C(c3ccccc31)C1C(=O)N(c3cccc(Cl)c3)C(=O)C12 (configuration not stated)	6.9%
COc1ccc(NC(=O)COc2ccc(C)cc2)cc1Cl	-2.4%
Cc1ccc(N(CCCCN2C(=O)c3ccccc3C2=O)C(=O)c2ccc(Cl)s2)cc1	23.2%
COC(=O)c1cc2nc(-c3ccc(OC)cc3)cc(C(F)(F)F)n2n1	7.9%
O=[N+]([O-])c1ccccc1S(=O)(=O)Nc1cc(C(F)(F)F)ccc1Cl	-4.5%
COc1cccc(-n2c(O)c(C=Nc3cccc(Cl)c3)c(=O)[nH]c2=O)c1	-3.7%
O=c1c2cc3c(=O)n(Cc4ccco4)c(=O)c3cc2c(=O)n1Cc1ccco1	-10.4%
Cc1ccc(N2C(=O)CSC2c2ccc(Cl)cc2)cc1C (configuration not stated)	11.2%
CN(c1ccccc1)S(=O)(=O)c1ccc(F)cc1	-9.3%
Oc1ccc(/C=N/Nc2nncc(-c3ccccc3)n2)cc1	-3.3%
O=C(O)CCC(=O)NNc1nc(-c2ccccc2)c2cc(Cl)ccc2n1	-12%
COc1ccc(-c2n[nH]c(=S)n2C2CCCCC2)cc1	1.4%
Cc1cc(OCC(=O)Nc2cc(-c3nc4ccccc4o3)ccc2C)ccc1Cl	21.6%
COc1ccc(/C=N/N2CCN(C(c3ccccc3)c3ccccc3)CC2)c(OC)c1	-8%
O=C(COc1ccc([N+](=O)[O-])cc1)Nc1cccc(Cl)c1Cl	12.9%

Structure (SMILES)	displacement
CCCOc1ccc(C(=O)Nc2ccc(N(CC)CC)cc2)cc1	-2.6%
COc1ccc(S(=O)(=O)Nc2ccc(C)cc2Br)cc1	3.5%
O=C(C(c1ccccc1)c1ccccc1)N1CCN(Cc2ccncc2)CC1	1.2%
O=[N+]([O-])c1cccc(S(=O)(=O)NNc2ccccc2)c1	-2.7%
O=[N+]([O-])c1cc(Cl)ccc1N1CCN(CCO)CC1	6.5%
CCOC(=O)c1c(NC(=O)c2cccc(F)c2)sc(C(=O)Nc2cc(C(F)(F)F)ccc2Cl)c1C	-7.9%
CCOc1cccc2c1N(C(=O)Cc1ccc(F)cc1)C(C)(C)c1ssc(=S)c1-2	14.9%
COc1ccccc1NC(=O)c1c(NC(=O)c2ccc([N+](=O)[O-])cc2)sc2c1CCCCC2	3.7%
CC(C)NC(=O)CN(c1ccc(F)cc1)S(=O)(=O)c1ccccc1	1.1%
Cc1ccc(C)c(N2C(=O)CC(Cc3ccc(Br)cc3)C2=O)c1 (configuration not stated)	11%
CCN(CC)C1=C/C(=N/S(=O)(=O)c2ccccc2)c2ccccc2C1=O	6.2%
Cc1cc(OCC(=O)NC2CCCCC2)ccc1Br	-2.7%
COc1ccc(CNS(=O)(=O)c2ccc(Br)cc2)cc1	5.2%
COc1ccc(Br)cc1/C=C/C(=O)Nc1ccc(O)c(-c2nc3ccccc3o2)c1	5.5%
N/C(=N\OC(=O)c1ccc(I)cc1)c1ccccn1	-0.1%
CCN(CC)C(=O)CN(c1cc(Cl)ccc1OC)S(=O)(=O)c1ccc(C)c([N+](=O)[O-])c1	13.6%
Cc1cc(C)c(NC(=O)c2ccccc2[N+](=O)[O-])c(C)c1	13.5%
Cc1ccc(NC(=O)C2COc3ccccc3O2)cc1 (configuration not stated)	-6.8%
COc1ccc2c(c1)c(/C=C/c1nc3ccccc3c(=O)n1-c1cccc(C)c1)c(C)n2C	-6.2%
COC(=O)C1=C(C)N(C)C(=S)NC1c1cccc(OC)c1 (configuration not stated)	-17.4%
CC1C(=O)N(c2ccc(Cl)c(Cl)c2)C(=N)N1c1nc(N(C)C)nc(N(C)C)n1 (configuration not stated)	4.9%
CCOC(=O)c1c(NC(=O)c2cccnc2)sc(C)c1C	-3.5%

Structure (SMILES)	displacement
Cc1ccn(-c2cc(O)c(-n3ccc(C)n3)cc2O)n1	-9.7%
O=C(NC(=S)Nc1ccc(F)cc1)c1cc2ccccc2oc1=O	0.1%
Cc1ccc(N(CC(=O)Nc2cccnc2)S(=O)(=O)c2ccc(F)cc2)cc1	-4%
CC(C)c1ccc2[nH]c3c(c2c1)CCC/C3=N\NC(=O)c1ccncc1	-16.6%
O=C(Nc1ccccc1C(=O)Nc1ccccc1)c1ccc(C(=O)Nc2ccccc2C(=O)Nc2ccccc2)cc1	2.8%
Nc1nnc(SCC(=O)Nc2nc(-c3ccccc3)cs2)s1	-3.2%
CS(=O)(=O)N(CC(=O)Nc1cccc(Br)c1)c1ccc(Cl)cc1	14.1%
Cn1cc(C(=O)N/N=C/c2ccccc2)ccc1=O	6%
O=c1c2cnn(-c3ccccc3)c2nc(-c2ccccc2)n1-c1ccccc1	3.9%
O=S(=O)(c1ccccc1)N1CCN(C2CCCC2)CC1	-7.7%
CN(C)S(=O)(=O)c1cc(S(=O)(=O)N(C)C)c(Cl)cc1N	-3.7%
COc1ccc(S(=O)(=O)Nc2ccccc2OC)cc1	17.7%
C=CCOc1ccc(C(=O)Nc2ccccn2)cc1	-11%
COc1ccc(CO/N=C(/N)c2nonc2N)cc1[N+](=O)[O-]	13.6%
Cc1ccc(SCCNC(=O)c2cccc(Cl)c2)cc1	-5.9%
O=C(Cc1ccc([N+](=O)[O-])cc1)N1N=C(c2ccc(Br)cc2)CC1(O)C(F)(F)F (configuration not stated)	13.5%
Cc1ccc([N+](=O)[O-])cc1-c1ccc(/C=C2\C(=O)NC(=O)N(c3ccc(Cl)cc3)C2=O)o1	6.8%
NC1=NC2(CCCC2)N=C(Nc2cccc3ccccc23)N1	-14.3%
O=C(c1ccc(F)cc1)c1ccc(N2CCCC2)cc1	-7.2%
